The values below come from ChEMBL document CHEMBL4888484, “Replenishing the malaria drug discovery pipeline: Screening and hit evaluation of the MMV Hit Generation Library 1 (HGL1) against asexual blood stage Plasmodium falciparum ,using a nano luciferase reporter read-out” (2022).

Molecules are shown by their SMILES. Screen size: about 150,000 compounds; about 540 (0.36%) showed an effect of 50% or more. This is one part of the list.

This assay concerns Plasmodium falciparum. Put plainly: Primary screen in NF54 nanoGlo assay, in single point, at 2uM, 72h; a lower Z score goes with more inhibition. As to conditions: timepoint 72 hour. Type of assay: functional, Erythrocyte.
What is called % Inhibition is the relative decrease from the control value, in per cent. Take `Cc1ccc2[nH]c([C@H](C)NC(=O)c3cc(COc4ccccc4)on3)nc2c1`: the “% Inhibition” value stood at 0% and the Z score is listed as 0.02.
The like results for `CC1(C)C[C@@H](NC(=O)COc2ccc(CO)cc2)CCO1` were, in that order, 31% and -4.49.
`C=CCN(CC=C)C(=O)CN1CCc2nc[nH]c2C12CCCCC2`: the “% Inhibition” value came out at 0% and the Z score was 0.03.
The like results for `CCCS(=O)(=O)Nc1ccc2c(c1)C(=O)N(C)c1ccccc1O2` were, in that order, -3% and 0.35.
As to `CN(CC1(C)CCOCC1)S(=O)(=O)c1cccs1`, the “% Inhibition” value was 1% and the Z score is listed as -0.22.
The like results for `Cc1cc2nc3n(c(=O)c2n1CC(=O)Nc1cc(F)ccc1F)CCCC3` were, in that order, -13% and 1.51.
For the molecule `COCC(NC(=O)c1cccc2[nH]c(=O)[nH]c12)C1CCCO1` (centres undefined), the “% Inhibition” value turned out to be 7% and the Z score is recorded as -1.06.
Consider `C#Cc1cccc(N(C)Cc2csc(N(CCOC)C(C)=O)n2)c1`, for which the “% Inhibition” value was -20% and the Z score is 1.83.
As for `CNc1cc(C)nc(-c2cnn(CC(=O)Nc3nn(C)c4ccccc34)c2)n1`, the “% Inhibition” value was determined as 20% and the Z score was -2.54.
As to `Cc1cc(CN(C)C(=O)c2cc(NC(=O)c3ccccc3)cc3ncn(C4CCCC4)c23)n[nH]1`, the “% Inhibition” value was 13% and the Z score was -1.56.
With `Cc1nc2c(C(=O)N3CC[S+]([O-])CC(C)C3)cccc2o1` (centres undefined), the “% Inhibition” value is -18% and the Z score came to 1.87.
For the molecule `Cc1cc2c(N(C)Cc3cc(C)on3)nccn2n1`, the “% Inhibition” value was found to be 33% and the Z score is given as -3.76.
With `CCN1CCN(c2cc3c(cc2S(=O)(=O)N2CCCCCC2)C(=O)Nc2ccccc2O3)CC1`, the “% Inhibition” value is given as 8% and the Z score is on record as -1.09.
The like results for `NC(=O)[C@@H]1CC[C@H](NC(=O)C2(C(F)(F)F)CCC2)C1` were, in that order, -13% and 1.68.
As for `CCN1C(=O)NC(=O)C12CCN(c1nnc(C3CC3)o1)CC2`, the “% Inhibition” value is on record as -6% and the Z score is reported as 1.04.
As for `O=C(C[C@@]1(O)C(=O)N(CN2CCOCC2)c2ccccc21)c1ccc2c(c1)OCCO2`, the “% Inhibition” value is -6% and the Z score was 0.7.
As to `CN(C(=O)c1csc(-c2cc3ccccc3o2)n1)C1(C#N)CCC1`, the “% Inhibition” value was determined as 10% and the Z score is given as -1.51.
Consider `Cc1nn(C)c(C)c1CCN/C(=N\c1cccc(F)c1)NC(=O)c1ccc(F)cc1`, for which the “% Inhibition” value is reported as -10% and the Z score was found to be 1.86.
Regarding `CNC(=O)NC(=O)[C@H](C)Nc1cccc(COCC2CC2)c1`, the “% Inhibition” value was determined as 3% and the Z score is recorded as -0.52.
Take `Cc1ccsc1CN1CCC(C(=O)N2CCCC2)CC1`: the “% Inhibition” value was -17% and the Z score is recorded as 2.23.
Regarding `Cc1ccc(NS(=O)(=O)c2cnnn2C)c(C(=O)C(F)(F)F)c1`, the “% Inhibition” value was -5% and the Z score was found to be 0.6.
The like results for `O=C1O[C@H]2CN(c3ccnc4cc(Cl)ccc34)C[C@H]2N1C1CCCC1` were, in that order, -7% and 1.37.
Turning to `CCC[C@H]1CN(C(=O)c2cc(C(C)C)n[nH]2)C[C@@H]1N`, the “% Inhibition” value was -5% and the Z score came out at 0.68.
On to `CCc1cccc2c(C3CCN(C(=O)c4cncnc4N)CC3)c[nH]c12`, for which the “% Inhibition” value is on record as -6% and the Z score is 0.57.
The like results for `CCC(CC)(CN(CC(CC)(CC)OC)C(=O)c1cn(C)c(=O)[nH]c1=O)OC` were, in that order, -9% and 1.25.
As to `C[C@@H](c1cccnc1)N(C)Cc1ncccc1C(F)(F)F`, the “% Inhibition” value was 6% and the Z score is -0.88.
Turning to `C[C@H](NS(=O)(=O)c1cc(S(C)(=O)=O)ccc1Cl)C(N)=O`, the “% Inhibition” value is -6% and the Z score worked out at 0.71.
Take `O=S(=O)(Nc1ccc(-n2cncn2)nc1)c1ccc2c(c1)OCCCO2`: the “% Inhibition” value worked out at 9% and the Z score was -1.27.
Turning to `COCC(NC(=O)N1CCCC(C)(O)CC1)c1ccc(Cl)cc1` (centres undefined), the “% Inhibition” value is -12% and the Z score came to 1.66.
The like results for `Cc1noc2ncnc(N3CCC[C@H](C(=O)N4CCCc5ccccc54)C3)c12` were, in that order, -3% and 0.61.
Take `CCOc1nnc(CN2C[C@@H]3CN(c4nc5ccccc5o4)C[C@]3(C)C2)s1`: the “% Inhibition” value is recorded as -2% and the Z score is 0.3.
The like results for `CC(C)N(CC(=O)N(Cc1ccc(F)cc1)Cc1cccs1)C(=O)c1ccc(Cl)cc1` were, in that order, 14% and -1.58.
Consider `O=C(OCC(=O)N1CCNC1=O)c1ccc(-c2ccccc2)cc1`, for which the “% Inhibition” value was -6% and the Z score was determined as 1.02.
The like results for `Cc1noc2ncnc(NC(C)(C)CO)c12` were, in that order, -12% and 2.02.
In the case of `Cc1cc(C(=O)N2CC(Oc3ccccc3F)C2)cc(=O)[nH]1`, the “% Inhibition” value is on record as -6% and the Z score is given as 1.04.
Turning to `CC(C)N1C(=O)C[C@H](N2CCN(Cc3ccccc3)CC2)C1=O`, the “% Inhibition” value was -1% and the Z score is 0.15.
For the molecule `CC1CN(C(=O)CN2CCCC2c2nc3ccccc3s2)CCO1` (centres undefined), the “% Inhibition” value stood at 2% and the Z score is -0.38.
The like results for `N#Cc1cccnc1NCc1cnn2c1CCCC2` were, in that order, -21% and 2.6.
With `COCC1(Cn2cnc3nccnc3c2=O)CCC1`, the “% Inhibition” value amounted to 0% and the Z score is reported as -0.03.
In the case of `CCN(CC(=O)Nc1nc(-c2ccccc2)cn1-c1ccc(C)c(F)c1)C(=O)c1cccc(OC)c1`, the “% Inhibition” value is -4% and the Z score stood at 0.82.
`CCOc1ccc(Nc2cc(C(=O)N3CCC(C)CC3)nc3ccc(F)cc23)cc1`: the “% Inhibition” value is listed as -6% and the Z score turned out to be 0.72.
With `CC(C)(Cc1ccc(F)cc1)N1Cc2ncccc2C1=O`, the “% Inhibition” value is reported as -12% and the Z score stood at 1.53.
